# Reference: patent publication US20250179143A1, “SYSTEMS AND METHODS FOR CHAPERONE-MEDIATED LIGAND EXCHANGE ON MHC-I AND MHC-RELATED MOLECULES USING CHICKEN TAPBPR” (priority 2022, published 2025)
# B1: hTAPBPR^FLQ: human TAPBPR mutant S104F, K211L, R270Q (protein)
# chain: KPHPAEGQWRAVDVVLDCFLAKDGAHRGALASSEDRARASLVLKQVPVLDDGSLEDFTDFQGGTLAQDDPPIIFEASVDLVQIPQAEALLHADCSGKEVTCEIFRYFLQMTETTVKTAAWFMANMQVSGGGPSISLVMKTPRVTKNEALWHPTLNLPLSPQGTVRTAVEFQVMTQTQSLSFLLGSSASLDCGFSMAPGLDLISVEWRLQHLGRGQLVYSWTAGQGQAVRKGATLEPAQLGMARDASLTLPGLTIQDEGTYICQITTSLYQAQQIIQLNIQASPKVRLSLANEALLPTLICDIAGYYPLDVVVTWTREELGGSPAQVSGASFSSLRQSVAGTYSISSSLTAEPGSAGATYTCQVTHISLEEPLGASTQVVPPERR
# How the values were obtained:
# [1] = DSF thermal stability of chaperone proteins; settings: DSF of the recombinant chaperone protein
# HLA-B*08:01 = HLA-B*08:01 (Homo sapiens, UniProt P01889, A93T/A95T/D138N/E176V/E187T/K202T/Q94N/R180D/S35A/V36M/Y33D/Y91F); assay: Fluorescence polarization (FP) peptide exchange; settings: based on DSF or FP assays
# HLA-A*02:01 = HLA-A*02:01 (Homo sapiens, UniProt P04439, D140Y/D185E/D98H/E176V/E277Q/G131W/G231S/I119V/I121R/I166T/I218V/L300P/L318F/N151K/N90K/P208A/P217A/Q86G/Q94H/R138H/R169H/T345S); assay: SPR; settings: peptide-deficient (empty) HLA-A*02:01
# HLA-A*01:01 = HLA-A*01:01 (Homo sapiens, UniProt P04439, A114D/A174V/A182V/D101N/D185E/E176A/E190D/L180R/Q94H/R68K/S129P/T187R/V100A/V91M/W191G); assay: Fluorescence polarization (FP) peptide exchange; settings: HLA-A*01:01, chaperone at 5 μM
molecule,measurement,setting,value
B1,Tm,[1],51.8 °C
same,Peptide exchange,HLA-B*08:01,failed to catalyze peptide exchange
same,Kd,HLA-A*02:01,81 nM
same,apparent rate constant kapp,HLA-A*01:01,0.00068 s⁻¹
